The values that follow come from PMC12136788.

Some of the results follow.

Sequences and labels used below:
T1: UNK ZnF1-3 (human, UniProt Q9C0B0 31-174)
T1 sequence: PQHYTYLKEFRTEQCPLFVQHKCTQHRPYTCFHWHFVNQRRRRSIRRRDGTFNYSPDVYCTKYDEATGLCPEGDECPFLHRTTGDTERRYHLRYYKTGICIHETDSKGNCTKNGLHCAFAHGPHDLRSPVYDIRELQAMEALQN

B1: chr1:58468927:58468928:-_ENSMUSG00000026034_ENSMUST00000148330|mus_mus|mus_mus_mus_hu_False|58_98 (ssRNA)
RNA: GGGAGUUCUACAGUCCGACGAUCAAUUACUGAAAAAUGAAAGAUGUACCUUAGCUAUGUACUUAAUGAACCAAAUUAUCUAAAAAAAAUAAACAUGGCAAUAUAAAAAUGUUAAGAAUUUACAAAGCUGUACAAAAUAACUUACAACAGAGGAUUGAGCAUCA
B2: 47181375_47181840_654_ncRNA_ENSMUSG00000021377_ENSMUST00000138401|mouse|control|control (ssRNA)
RNA: GGGAGUUCUACAGUCCGACGAUCAUUCUCUUUGCUGGUAUAAAAUCAGAUCUUCAAAUCUGAGAACAAGCCAUCUGUCCGCUUCUCAAGAAAUUAGCUCUUUUACAGUUGUUUUAAUGAAAUCUUUCCUCUCAGUCAAAUCAUCAACAGAGGAUUGAGCAUCA
B3: chr8:95500983:95500984:-_ENSG00000164944_ENST00000437199|hu_hu|hu_hu_hu_mus_True|1_108 (ssRNA)
RNA: GGGAGUUCUACAGUCCGACGAUCAGAAGGAUUUUUACGAGUAAAGGACCGUACAUGACGGCCUCUACCACUGCCUCCACUAACAAACUUUCCUCUCGAGCCUCCACUGCCGCUAUUUGUACUAGCCCAGGACGGUCCCAAGUCCAACAGAGGAUUGAGCAUCA
B4: chr18:47247233:47247234:+_ENSMUSG00000042705_ENSMUST00000049388|mus_hu|FALSE|FALSE (ssRNA)
RNA: GGGAGUUCUACAGUCCGACGAUCUUGUAUAUGGCUAUUUUCUUAAUUUUAUUCAUGUAAUUACCAAAGCUCUGUAUUCUACUAAGGUACACAUCUUAUCUUGUAUCCAUGGACGCUCCUUGAUACAUUAUGGUAUCAUCCAGCCAACAGAGGAUUGAGCAUCA
B5: 88343747_88343867_74_5pUTR_ENSG00000170502_ENST00000302174|human|control|control (ssRNA)
RNA: GGGAGUUCUACAGUCCGACGAUCAGUCCACCGCUUUCCCCAGUGCAUCGAGAAAAAUCCAGACCAGCACGUGACGCCGAAGCCUCCAGCGCCAGCUGCCUGGGGAAACCGCGGCCACGAACCUCGUAACUUUCUCUCUGCGUACAACAGAGGAUUGAGCAUCA
B6: chr9:95013113:95013114:-_ENSG00000196305_ENST00000443024|hu_hu|hu_hu_hu_mus_False|18_108 (ssRNA)
RNA: GGGAGUUCUACAGUCCGACGAUCCUCAGUGAGAAAAGGCGUGUAAGGGGCCAUCAGUCUGCACAGAGAAAGCAGGACACUGAACAGUGUCUCCAGAGCCAUGACACAGUCUUCCACCCCAUUUUCACCCUUUAACCUCCUCCUCAACAGAGGAUUGAGCAUCA
B7: chrX:71549400:71549401:+_ENSMUSG00000019087_ENSMUST00000019231|mus_hu|mus_mus_mus_hu_False|1_28 (ssRNA)
RNA: GGGAGUUCUACAGUCCGACGAUCGCAGUAGGAAGAGGGAAGCUCUUCAGUCCAGUGCGCUGCAGGGUGGGAAAGCAACAACACGGACACCGUCCCACCCUCAACCCUCUCAGGUGUACAGGGUCACACAAUCUGGGAAGUGAUCAACAGAGGAUUGAGCAUCA
B8: chr5:21390796:21390797:-_ENSMUSG00000042453_ENSMUST00000160791|mus_hu|FALSE|FALSE (ssRNA)
RNA: GGGAGUUCUACAGUCCGACGAUCGGUAUUUCAAUUAAUUUUCUGCAGAAUAUAAGUAGCCCCAAAUUCAGCAGCAAAAUAUUACAACAUAACAAGUAAAUACAGUUUCAAUGUGUUGUAUUGUAGAAGAGAAUACAUAAAGGACAACAGAGGAUUGAGCAUCA
B9: chr16:94664741:94664742:+_ENSMUSG00000040785_ENSMUST00000117648|mus_hu|mus_mus_mus_hu_False|38_68 (ssRNA)
RNA: GGGAGUUCUACAGUCCGACGAUCUGGUACUGAUCUUGGUAGCUGAUAUUCAGGAGAAAGGCUGGCCAAAGGUGUGUAUAUGCUGGUGUACUGGGGCAGGCUAGGUAACACGUUUAUGUAUGCUGGCGGUGUCUGGGUGAUAUCCAACAGAGGAUUGAGCAUCA
B10: chr7:54825262:54825263:-_ENSG00000132432_ENST00000352861|hu_hu|hu_hu_hu_mus_False|18_48 (ssRNA)
RNA: GGGAGUUCUACAGUCCGACGAUCCUGCCGGCUGGGCUCCACAAACUGCAUUACCUGAUCCAUGUUUGUUGGAUGGCGGAUUGAGAGUGCCAGGGACCGUAGCUCAGGAGAGAACCGGAUGGAGGCCAACCGGAAGCUGGCAACCAACAGAGGAUUGAGCAUCA
B11: chr6:145166005:145166006:-_ENSMUSG00000030265_ENSMUST00000032399|mus_hu|FALSE|FALSE (ssRNA)
RNA: GGGAGUUCUACAGUCCGACGAUCUUAACACAGAAGUUACUAAAUAUAAAUUCAGCUUUAAGGUAACUGCUGGGUUCUAAAAAACAUUACUACACAAUUAUCAAGAAAUCAUUACUUUUUGACAAAUGGAAAUCUUCAGAUAGUCAACAGAGGAUUGAGCAUCA
B12: chr14:102036314:102036315:-_ENSMUSG00000075486_ENSMUST00000100339|mus_mus|FALSE|FALSE (ssRNA)
RNA: GGGAGUUCUACAGUCCGACGAUCCUUGAGAGAUCUGCAGCUGUCAGAGCUCACAGCCAUGCCCAGUUUCCACUGAAAAUCUAUAAGCUGGCCCGUGACCUCCGACUUGGCAUCCAGCACGGGCUCCCUGAACCCAGACUCCUCCAACAGAGGAUUGAGCAUCA
B13: chr11:34129765:34129766:+_ENSG00000135372_ENST00000257829|hu_hu|FALSE|FALSE (ssRNA)
RNA: GGGAGUUCUACAGUCCGACGAUCCCAUUCUCAAUGAGAAUCCGGAUUCGGUUAUCCACCUUUUUCCGAUGCAUGGUGAAAAAUUAUUACUGCGCCCCGAGCCCGGGGGAUCCCAGCCAGUGGAGAAGGGGAAGCACGUGGGAGCAACAGAGGAUUGAGCAUCA
B14: chr5:37680062:37680063:+_ENSMUSG00000029121_ENSMUST00000031004|mus_hu|mus_mus_mus_hu_False|48_48 (ssRNA)
RNA: GGGAGUUCUACAGUCCGACGAUCUUUGGGUGUAGCUGGUACCUCGUACACAGGACCGUCAUACAUGCCCCUGGAAACCCCUUGCAACCCGAAAACCUUAUUCCUGAUUUUGACGCGCUGGUACAGGUGCUCCGGGAACGCCUUCAACAGAGGAUUGAGCAUCA
B15: 118633977_118635998_930_CDS_ENSG00000110367_ENST00000264018|human|control|control (ssRNA)
RNA: GGGAGUUCUACAGUCCGACGAUCAUCCAGGAUUCUCCCAGGGGUAGCAAUCACCACGUGCACUGUAUCAUCAAGCCUCAUUAUGUCAUCUCGUAAAUUGGUUCCUCCUGUGGUUGCCAUCACUUUGGCCCCUCCCAUGUGUUUCAACAGAGGAUUGAGCAUCA
B16: chr1:115110812:115110813:-_ENSG00000116752_ENST00000369541|hu_hu|FALSE|FALSE (ssRNA)
RNA: GGGAGUUCUACAGUCCGACGAUCGUCUUGCCGGAUGUUUUCUUUGUUUGCCUCUCCAUGUUGCUGCUUAAUUUGAUAGAUUUCAUUUUCUAGCUGAACAAUAGUCCGUUCAAUCUCAUAAUUCUUACUGACCAGGGAUACCCACAACAGAGGAUUGAGCAUCA
B17: chr2:155483634:155483635:-_ENSMUSG00000038324_ENSMUST00000041059|perfect_dup|motif|central (ssRNA)
RNA: GGGAGUUCUACAGUCCGACGAUCGGUGACAGCCAGGAUCCUGCAGAAGUUAGCAAGCUGCUGCUGAUCGAAAUUGGAUACGGAGGAACUCAGAUUGGGAACUUCAUCUAGCCGGAUCAUUUCCUUCUUAACACCCAAAAUGUCCAACAGAGGAUUGAGCAUCA
B18: chr5:71490711:71490712:+_ENSG00000131711_ENST00000296755|hu_hu|FALSE|FALSE (ssRNA)
RNA: GGGAGUUCUACAGUCCGACGAUCCACAGGAGUGGGCACCUGGCCAGUGAGAUCCUUUUGGGUGGCCAGUGGCUGCUUCAGAAAGUCUAGAUGUUUGAGCUUUUCCAACCCUUCCAGGAUGUUGUACUGGGUGCUGUUCCCAGGCAACAGAGGAUUGAGCAUCA
B19: chr13:100193180:100193181:-_ENSMUSG00000052727_ENSMUST00000064762|mus_hu|FALSE|FALSE (ssRNA)
RNA: GGGAGUUCUACAGUCCGACGAUCAUAAUGUUCAGGUUAAAUACAUUUAAUUGUGAAAUUGGAAAAUAACUUGCAUCUUCUGUCAAAGAAAAAUCAACCAGAGGUCUGGAUUUGGCAAGAAGGCUAAAAAUCUGGUUUUCUUCCCAACAGAGGAUUGAGCAUCA
B20: 29704766_29706733_384_CDS_ENSG00000134758_ENST00000257190|human|control|control (ssRNA)
RNA: GGGAGUUCUACAGUCCGACGAUCCUGAUUUAGAUGACUAACGAAAUUUCUGGUAAUCUGGCUAGGAUCUCCCCAAGGAAGAGACACACAAAUAGGACAUGUCACAGGAACUAUCUGAAAUAGGUGAUUACUGUUACAGUGAUCCAACAGAGGAUUGAGCAUCA
B21: chrX:20249591:20249592:+_ENSMUSG00000001924_ENSMUST00000001989|mus_hu|FALSE|FALSE (ssRNA)
RNA: GGGAGUUCUACAGUCCGACGAUCCACCAGGAAAUACUUCUGCUUGCCCAGCUUCUCUUGCAGGUCUGAGCCAAACACAGCCACUUGCCCGUCAUAACGGUUCUGGCGCUGGAGGCACUUGUCCUCUGUGAGGACCUCUUUGUCCAACAGAGGAUUGAGCAUCA
B22: 117900442_117903411_957_CDS_ENSMUSG00000033295_ENSMUST00000150096|mouse|control|control (ssRNA)
RNA: GGGAGUUCUACAGUCCGACGAUCGGUCUCCACUGAGCCUCAGCCAGCAUGACAUCCUGGAUGAUGGGUUGGCCUCGGGGCUCACCAUUCUCCAACCGCACAUAGGUGACCUGGUAGCCACGAAUCUGUCCGUGCUGCUUGUUGCAACAGAGGAUUGAGCAUCA

In this assay the target is T1, UNK ZnF1-3. Description: nsRBNS (natural sequence RNA bind-n-seq); RBNS binding buffer (assumed for nsRBNS): 25 mM Tris pH 7.5, 150 mM KCl, 3 mM MgCl2, 0.01% Triton X-100, 500 ug/ml BSA, 20 U/ml SUPERase-In, 4 C; UNK is unkempt and MSI1 is Musashi-1; names of the RNAs are library labels; protein concentration not given here; high values mean tight binding.
In turn, B1 showed a binding signal of 1.4 enrichment R. The same measure for B2: 0.672 enrichment R; for B3: 0.89 enrichment R. The same measure for B4: 0.975 enrichment R; for B5: 0.648 enrichment R; for B6: 1.32 enrichment R.

As to B7, the binding signal worked out at 0.725 enrichment R. Then B8, with 1.3 enrichment R; and B9, with 1.03 enrichment R; and B10, with 0.934 enrichment R.

B11 had a binding signal of 0.787 enrichment R. The same measure for B12: 0.493 enrichment R. In the case of B13, the binding signal worked out at 1.31 enrichment R. On to B14, for which the binding signal is 0.631 enrichment R.

Molecule B15 came in with a binding signal of 1.02 enrichment R. Then B16, with 0.733 enrichment R; and B17, with 1.28 enrichment R; and B18, with 1.13 enrichment R. B19 yielded a binding signal of 1.3 enrichment R. Then B20, with 1.42 enrichment R. On to B21, for which the binding signal was 0.823 enrichment R. In the case of B22, the binding signal is 0.438 enrichment R.
